Data: PubChem BioAssay AID463173 (ICCB-Longwood Screening Facility, Harvard Medical School, 2010)
Hit rate of the full screen: of about 52,000 compounds, about 1,700 (3.3%) were called active. Rule as the data show it: active = survival mostly below about 52% (no sharp cut-off); inactive = mostly above about 56%. The list shows a part of the results.

Each compound was assayed on Wild type (assay: growth inhibition of S. aureus wild type versus tarO mutant, primary screen, teichoic acid synthesis inhibitors, RN4220, OD600 (AID 463173)). Conditions: S. aureus RN4220 wild type/DeltatarO growth, OD600, 18 h, hits give low values, screened at 18.75 µg/mL (by protocol).

SMILES	survival
Cc1cccc(NC(=O)CN2C(=O)c3cccnc3Oc3ccc(Cl)cc32)c1C	inactive: 102%
CSc1ccc(CCNC(=O)CCCn2nc(C)c3sc4ccccc4c3c2=O)cc1	inactive: 88%
COc1ccccc1OCC(=O)N(Cc1ccc(Cl)cc1)CC1CCCO1 (centres undefined)	inactive: 79%
CCc1cccc(CC)c1NC(=O)c1ccc2c(c1)CCN2S(=O)(=O)c1ccccc1	inactive: 84%
CC(=O)c1ccc(NC(=O)CC2Nc3cccc4cccc(c34)NC2=O)cc1 (centres undefined)	inactive: 96%
CC(C)CCNC(=O)Nc1ccc2c(c1)N(C)C(=O)c1ccccc1S2	inactive: 135%
Cc1ccc(Cc2cnc(I)c(O)c2)cc1	inactive: 111%
COC(=O)CS(=O)(=O)c1nc2ccccc2nc1N1CCCCC1	inactive: 58%
Cc1ccc(NC(=O)Cn2c(=O)c3cc(Cl)ccc3n3nncc23)cc1	inactive: 53%
Cc1n[nH]c(C)c1S(=O)(=O)N(CC(=O)NC(C)c1ccccc1)c1ccc(C(C)C)cc1 (centres undefined)	inactive: 85%
COc1ccc(C(=O)NCCn2cc(SCC(=O)NCCc3ccc(OC)c(OC)c3)c3ccccc32)cc1	inactive: 78%
COc1cccc(NC(=O)Cn2cnc3c(nc4n3CCCCC4)c2=O)c1	inactive: 71%
COCCCNC(=O)CN1C(=O)COc2ccc(S(=O)(=O)N3CCCC3)cc21	inactive: 79%
CC1=C(c2ccc(C)c(C)c2)S(=O)(=O)N=C1N1CCC(C(=O)NCCc2ccco2)CC1	inactive: 71%
CS(=O)(=O)N1CCc2cc(C(=O)NCCc3ccccc3)ccc21	inactive: 92%
Cc1ccc(-c2cc(C(=O)N3CCN(S(=O)(=O)c4ccc(Br)cc4)CC3)[nH]n2)cc1C	inactive: 66%
CCC(=O)NCC(c1ccc2c(c1)OCO2)N1CCN(c2ccccc2)CC1 (centres undefined)	inactive: 135%
CCOc1ccc(NCc2cccn2-c2nnc(N3CCC(C(=O)NCCc4ccc(OC)c(OC)c4)CC3)s2)cc1	inactive: 129%
O=C(CN1CCOCC1)N(c1ccccc1)c1ccc2ccccc2c1	inactive: 106%
Cc1nc2ccccc2c(=O)n1-c1ccc(NC(=O)c2ccc([N+](=O)[O-])cc2)cc1	inactive: 73%
COc1ccc(N2CCN(C(=O)CCc3c(C)nc4cc(-c5ccc(Cl)cc5)nn4c3C)CC2)cc1	inactive: 118%
Cc1ccc2cc(CNCc3cccnc3)c(=O)[nH]c2c1	inactive: 103%
COc1ccc(-c2[nH]nc3nc(-c4cc(OC)c(OC)c(OC)c4)cc(C(=O)O)c23)cc1	inactive: 86%
Cc1ccc(CCNC(=O)c2cn(C)c3ccc(S(=O)(=O)N4CCCCC4)cc3c2=O)cc1	inactive: 83%
